In PubChem BioAssay AID2100 (National Center for Advancing Translational Sciences (NCATS), 2009):
The campaign covered roughly 300,000 compounds. About 1,200 (0.4%) were called active. The shares of active, inactive and inconclusive entries below differ from those in the screen. Calls come from the whole dose curve; as a rule, active = well fitted inhibition curve with a large enough effect; inconclusive = small, poorly fitted or top-dose-only effect, or another doubt; inactive = no such curve, though single readings can be large or run the other way. Potencies of inconclusive entries are doubtful fits and often do not repeat.

target: Lysosomal alpha-glucosidase (Homo sapiens) (UniProt P10253); assay: qHTS Assay for Inhibitors and Activators of Human alpha-Glucosidase Cleavage of Glycogen; conditions: recombinant GAA, glycogen substrate, Amplex Red glucose oxidase fluorescence; series mostly up to 76.4 µM
Method in brief: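 Recombinant human alpha-glucosidase (4 nM final) hydrolysed bovine liver glycogen (30 ug) for 40 min at 37 C in pH 5.0 citrate/phosphate with 0.01% Tween-20. Released glucose detected by glucose oxidase/Amplex Red, Ex 573/Em 610 nm. Compounds up to 77 uM; AC50 from Hill fits.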
Potency is the fitted concentration of half-maximal effect.

SMILES | Potency
CCOC(=O)c1cc2c(ccn2C)n1CC(=O)N1CCN(c2ccc(F)cc2)CC1 | inactive
O=C(COc1ccc(F)cc1)c1c(O)cc(O)cc1O | inconclusive: 44.7 µM [inhibitor, single point]
CN(CC(=O)Nc1cccc(Cl)c1)S(=O)(=O)c1ccc2[nH]c3c(c2c1)CCCC3 | inactive
NC(=O)c1ccc(NC(=O)CSC2=Nc3ccccc3C3CC=NN23)cc1 (stereo unspecified) | inconclusive: 50.1 µM [activator, single point]
Cc1cc(C)c2c(c1)-c1cc(C)nn1C(c1ccc3c(c1)OCO3)N2 (stereo unspecified) | inconclusive: 28.2 µM [inhibitor, partial curve]
CC(C)c1ccc(NC(=O)C2CCN(S(=O)(=O)c3cccc4nsnc34)CC2)cc1 | inactive
CCc1cccc(N(C)C(N)=Nc2cccc3ccccc23)c1 | inactive
CCOc1ccccc1NC(=O)CN1C(=O)COc2ccc(S(=O)(=O)N3CCCCCC3)cc21 | inactive
Brc1ccc2c(c1)CNc1c(ncnc1N1CCOCC1)O2 | inconclusive: 14.1 µM [inhibitor, partial curve]
CCOC(=O)c1[nH]c2ccc(OC)cc2c1NC(=S)N1CCN(c2cccc(C)c2C)CC1 | inconclusive: 6.31 µM [inhibitor, single point]
CC(C)c1ccc2c(c1)CCC1C(C)(CN)CCCC21C (stereo unspecified) | inactive
CC1=NN(c2ccc(Cl)cc2)C(=O)C1C(c1cccc(O)c1)c1c(C)[nH]n(-c2ccc(Cl)cc2)c1=O (stereo unspecified) | inconclusive: 28 µM [inhibitor, single point]
Cc1ccc(C(=O)c2c(C)oc3c2C(=O)C(=O)c2ccccc2-3)cc1 | inactive
COc1cc(/C=N\Nc2nc(-c3ccc(C)cc3)c(NC(C)=O)s2)ccc1O | inconclusive: 22.4 µM [inhibitor, partial curve, poor fit]
NNC(=S)NC1CCS(=O)(=O)C1 (stereo unspecified) | inconclusive: 28.2 µM [inhibitor, partial curve]
CN(C)S(=O)(=O)c1ccc(Cl)c(NC(=O)CN2CCNC(=O)C2)c1 | inactive
CCOC(=O)C1=C(C)NC(SCc2cc(=O)[nH][nH]2)=C(C#N)C1c1cccs1 (stereo unspecified) | active: 31.4 µM
Cc1ccc(C(=O)c2coc3cc([N+](=O)[O-])c(O)c([N+](=O)[O-])c23)cc1 | inconclusive: 50.1 µM [inhibitor, single point]
COCCNC(=O)c1c(N)n(-c2ccccc2)c2nc3ccccc3nc12 | inactive
C=CCn1c(SCC(=O)N2CCOCC2)nc2scc(-c3ccco3)c2c1=O | inactive
COc1ccc(C2=NN(c3nc(C)cc(C)n3)C(=O)C2)cc1 | inconclusive: 24.9 µM [inhibitor, single point]
CN(C)c1ccc(-c2ccc3c(=O)c4ccccc4n(C)c3c2)cn1 | inconclusive: 31.6 µM [activator, single point]
Cc1ccc(-c2n[nH]c(=S)n2Cc2ccccc2)cc1 | inconclusive: 17.6 µM [inhibitor, partial curve]

SMILES | Potency
O=C(CCCn1c(SCC(=O)c2ccc(O)c(O)c2)nc2ccccc2c1=O)NCC1CCCO1 (stereo unspecified) | active: 5.58 µM
O=C1OC(N2C(=O)CC[C@H]2C(=O)Nc2ccc3c(c2)OCO3)c2ccccc21 (stereo partly specified) | active: 31.6 µM
O=C1C(Cc2ccc(O)cc2)NC(=S)N1c1ccccc1 (stereo unspecified) | inconclusive: 35.2 µM [inhibitor, single point]
CC(=O)C(=Nc1ccc(Cl)cc1Cl)NNc1cccc(Cl)c1 | inconclusive: 22.4 µM [inhibitor, partial curve]
O=C(COC(=O)c1ccccc1C(=O)N1CCN(c2ccccc2)CC1)NCc1ccccc1 | inactive
CC(C)N(Cc1ccccc1)C(=O)CN1C(=O)CSc2ccc(S(=O)(=O)N3CCCC3)cc21 | inactive
Cc1cc(=O)oc2cc(OCC(=O)OCC(=O)Nc3ccccc3F)ccc12 | inconclusive: 50.1 µM [inhibitor, single point]
Cc1ccc(-n2c(-c3cc(-c4ccco4)[nH]n3)n[nH]c2=S)c(Br)c1 | inconclusive: 50.1 µM [inhibitor, single point]
COc1cccc(NS(=O)(=O)c2ccc3[nH]cc(C(=O)N4CCCC4)c(=O)c3c2)c1 | active: 28.2 µM
CC(=O)C1=C(C)NC(SCC(=O)c2ccc(F)cc2)=C(C#N)C1CC(C)C (stereo unspecified) | inconclusive: 39.8 µM [inhibitor, single point]
CC(=O)c1ccc(NC(=O)COCc2cc(-c3ccc(F)cc3)on2)cc1 | inactive
Cc1ccc(O)c(NC(=O)c2onc(C)c2Cl)c1 | inconclusive: 35.5 µM [inhibitor, single point]
CCCC(C)C(=O)Nc1nc(C)c(-c2csc(Nc3cc(OC)ccc3OC)n2)s1 (stereo unspecified) | inconclusive: 19.8 µM [inhibitor, single point]
Cc1ccccc1NC(=O)CSc1ccc(-c2cccs2)nn1 | inactive
Cc1ccc(/C(O)=C/c2nc3ccccc3oc2=O)cc1 | inconclusive: 19.8 µM [inhibitor, partial curve]
C/C(=N/N1CCN(c2ccccn2)CC1)c1cccc([N+](=O)[O-])c1 | inconclusive: 6.31 µM [inhibitor, full curve]
CCOC(=O)c1sc(NC(=O)CN2C(=O)c3cccc4cccc(c34)C2=O)nc1C | inconclusive: 39.5 µM [inhibitor, single point]
COC(=O)c1ccc(CNC(=O)CNc2cc(C(F)(F)F)ccc2N2CCOCC2)cc1 | inconclusive: 28.2 µM [inhibitor, partial curve]
COc1ccc(C(=O)NNc2ccccc2)cc1OC | active: 22.2 µM
CSc1nc2nc3c(c(=O)n2[nH]1)CN(Cc1ccccc1)CC3 | inconclusive: 24.9 µM [inhibitor, single point]
COc1ccc(CCN2CCCC(CN(C)Cc3cc(Cl)c(O)c(OC)c3)C2)cc1 (stereo unspecified) | inconclusive: 35.5 µM [inhibitor, partial curve, poor fit]
O=S(=O)(c1ccc(Cl)nc1)N1CCc2ccccc21 | inactive
COc1ccccc1N1CCN(C(=O)CSc2ccc3c(C)cc(C)nc3n2)CC1 | inconclusive: 7.94 µM [inhibitor, full curve]
